According to the supplement of paper PMC4604168 (melanoma cell lines):
The other results are listed elsewhere or left out. Many values rest on one well or one pass, so single values are uncertain.

Assays:
Assay in all cases: cell count relative to DMSO control; melanoma cells; higher = more viable cells
Settings in all cases: library dose: standard library concentration; 72 h
G361 = system: G361
IPC-298 = system: IPC-298
IST-MEL1 = system: IST-MEL1
LB2518-MEL = system: LB2518-MEL
LOXIMVI = system: LOXIMVI
MEL-HO = system: MEL-HO
MZ2-MEL = system: MZ2-MEL
MeWo = system: MeWo
RPMI7951 = system: RPMI7951
RVH-421 = system: RVH-421
SkMel28 = system: SkMel28
SkMel2 = system: SkMel2
SkMel30 = system: SkMel30
SkMel5 = system: SkMel5
UACC257 = system: UACC257
UACC62 = system: UACC62
WM115 = system: WM115
WM1716 = system: WM1716
WM1745 = system: WM1745
WM3526 = system: WM3526
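Also: cells treated in 1,536-well plates, then fixed and DAPI-stained, with nuclei counted from automated high-throughput microscope images.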

Row | SMILES | cell count (G361) | cell count (IPC-298) | cell count (IST-MEL1) | cell count (LB2518-MEL) | cell count (LOXIMVI) | cell count (MEL-HO) | cell count (MZ2-MEL) | cell count (MeWo) | cell count (RPMI7951) | cell count (RVH-421) | cell count (SkMel28) | cell count (SkMel2) | cell count (SkMel30) | cell count (SkMel5) | cell count (UACC257) | cell count (UACC62) | cell count (WM115) | cell count (WM1716) | cell count (WM1745) | cell count (WM3526)
1 | Cc1ccc(Nc2nccc(N(C)c3ccc4c(C)n(C)nc4c3)n2)cc1S(N)(=O)=O [Pazopanib] + C[As](C)SC[C@H](NC(=O)CC[C@H](N)C(=O)O)C(=O)NCC(=O)O [Darinaparsin] (first compound 2 µM, partner dose 2 µM) | 63.4% | 63.6% | 90.3% | 70.4% | 54.1% | 78.8% | 57.9% | 79.3% | 60.7% | 97.5% | 66.4% | 84.4% | 70.6% | 54.2% | 73.2% | 60% | 92.7% | 72% | 66.8% | 69.8%
2 | Cc1ccc(NC(=O)c2cccc(N(C)C)c2)cc1NC(=O)c1ccc(O)cc1 + O=C(Oc1ccc([N+](=O)[O-])cc1)N1CCC(C(O)(c2ccc3c(c2)OCO3)c2ccc3c(c2)OCO3)CC1 [JZL184] (first compound 10 µM, partner dose 5 µM) | 104% | 96.6% | 96.5% | 126% | 119% | 88.9% | 81.9% | 101% | 74.3% | 102% | 101% | 98.7% | 98.1% | 100% | 109% | 91.7% | 105% | 99.2% | 78.1% | 80.3%
3 | CO[C@@H]1[C@H](N(C)C(=O)c2ccccc2)C[C@H]2O[C@]1(C)n1c3ccccc3c3c4c(c5c6ccccc6n2c5c31)C(=O)NC4 [Midostaurin] + O=C(Oc1ccc([N+](=O)[O-])cc1)N1CCC(C(O)(c2ccc3c(c2)OCO3)c2ccc3c(c2)OCO3)CC1 [JZL184] (first compound 0.4 µM, partner dose 5 µM) | 46.9% | 55.1% | 64.8% | 50.3% | 61.4% | 64% | 43.2% | 62.1% | 33% | 54.2% | 39.5% | 61.3% | 52.5% | 54.1% | 35.6% | 39.8% | 38.6% | 28% | 25.6% | 52.6%
4 | Cc1cc(SCc2sc(-c3ccc(C(F)(F)F)c(F)c3)nc2C)ccc1OCC(=O)O + Cc1cc([N+](=O)[O-])ccc1NS(=O)(=O)c1cc(Cl)ccc1Cl [FH535] (first compound 10 µM, partner dose 5 µM) | 58.4% | 58.4% | 58.4% | 99.8% | 155% | 58% | 77.1% | 91% | 101% | 79.3% | 80.3% | 86.6% | 113% | 66% | 80.1% | 133% | 96.2% | 89.9% | 121% | 92.7%
5 | CC1(C)CCC(c2ccc(Cl)cc2)=C(CN2CCN(c3ccc(C(=O)NS(=O)(=O)c4ccc(N[C@H](CCN5CCOCC5)CSc5ccccc5)c(S(=O)(=O)C(F)(F)F)c4)cc3)CC2)C1 + C[C@]12O[C@H](C[C@]1(O)CO)n1c3ccccc3c3c4c(c5c6ccccc6n2c5c31)CNC4=O [Lestaurtinib] (first compound 2 µM, partner dose 0.02 µM) | 62.5% | 79.1% | 94.8% | 33.9% | 75.7% | 63.6% | 97.6% | 80.9% | 52.5% | 42.9% | 60.1% | 87.6% | 66.1% | 84.9% | 39.3% | 82.7% | 54.5% | 90.5% | 2.84% | 105%
6 | COc1ccc(-c2ccc3c(N4CCOCC4)nc(N4C[C@@H](C)O[C@@H](C)C4)nc3n2)cc1CO + O=C(Oc1ccc([N+](=O)[O-])cc1)N1CCC(C(O)(c2ccc3c(c2)OCO3)c2ccc3c(c2)OCO3)CC1 [JZL184] (first compound 0.1 µM, partner dose 5 µM) | 112% | 79.8% | 99.8% | 106% | 108% | 84.1% | 96.5% | 79.7% | 96.7% | 125% | 105% | 89.5% | 98.1% | 71.1% | 86% | 99.7% | 80.1% | 91% | 106% | 78.3%
7 | CO[C@@H]1[C@H](N(C)C(=O)c2ccccc2)C[C@H]2O[C@]1(C)n1c3ccccc3c3c4c(c5c6ccccc6n2c5c31)C(=O)NC4 [Midostaurin] + Cc1cc(SCc2sc(-c3ccc(C(F)(F)F)c(F)c3)nc2C)ccc1OCC(=O)O [GW0742] (first compound 0.4 µM, partner dose 10 µM) | 39.7% | 43.3% | 69.5% | 55.9% | 49.8% | 64.5% | 39.2% | 48.5% | 42.5% | 42.5% | 30% | 34.2% | 46.6% | 42.8% | 50.1% | 54.4% | 35.7% | 25.9% | 27.5% | 56.5%
8 | CCc1ccc(CCOc2ccc(CC3SC(=O)NC3=O)cc2)nc1 (stereo not given) [pioglitazone] + O=C(Oc1ccc([N+](=O)[O-])cc1)N1CCC(C(O)(c2ccc3c(c2)OCO3)c2ccc3c(c2)OCO3)CC1 [JZL184] (first compound 10 µM, partner dose 5 µM) | 117% | 106% | 102% | 142% | 93% | 108% | 129% | 99.3% | 92.7% | 111% | 80.6% | 107% | 93.2% | 84.6% | 82.8% | 95.3% | 84.3% | 83.6% | 80.6% | 81.8%
